# Data from the supplement of paper PMC7826260.
# Some of the results follow. Cleavage of a single-stranded DNA pool by Rep nickase domains was read by sequencing (3 µM enzyme, 1 h, 37 °C); shown is the middle of each 90-letter strand. A value is the log2 ratio of uncut reads to the pool without enzyme; uncut sequences lie near 0, cut ones below; no hit call is given. The scaling is to total reads; uncut strands gain when others are lost, and binding without cutting may add a little.
# Legend:
# Experiment in all cases: uncleaved DNA left, log2 of reads against the no-enzyme library (log2 ratio); higher = less cleavage (more negative = more Rep cleavage of the k-mer); sequences stand for … in CTCGTCCG…ACCGGAGA
# [1] = test system: T1, Rep nickase domain of Muscovy duck circovirus
# T1 sequence (protein, residues 1-111, tag omitted): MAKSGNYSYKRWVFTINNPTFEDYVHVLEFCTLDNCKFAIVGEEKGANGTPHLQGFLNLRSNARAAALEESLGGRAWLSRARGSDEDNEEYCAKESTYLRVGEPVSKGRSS
# Experimental: (§1)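 A pool of 90-nt single-stranded DNAs with seven random bases just before the constant AC of the nick site (name = the seven bases) was cut by 3 µM recombinant His6-SUMO-tagged Rep nickase domain (300 nM DNA, 50 mM HEPES pH 8.0, 50 mM NaCl, 1 mM MnCl2, 1 h, 37 °C, three replicates). Uncut DNA was amplified and sequenced.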
# [2] = test system: T2, Rep nickase domain of banana bunchy top virus
# T2 sequence (protein, residues 1-94, tag omitted): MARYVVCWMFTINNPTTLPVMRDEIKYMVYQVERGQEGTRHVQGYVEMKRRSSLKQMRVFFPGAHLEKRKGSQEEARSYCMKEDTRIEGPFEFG
# Experimental: as §1
# [3] = test system: T3, Rep nickase domain of cabbage leaf curl virus
# T3 sequence (protein, residues 1-116, tag omitted): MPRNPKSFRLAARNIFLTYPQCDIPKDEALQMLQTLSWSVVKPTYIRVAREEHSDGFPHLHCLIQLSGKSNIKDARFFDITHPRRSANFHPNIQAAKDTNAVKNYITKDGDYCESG
# Experimental: as §1
# [4] = test system: T4, Rep nickase domain of chickpea chlorotic dwarf virus
# T4 sequence (protein, residues 1-124, tag omitted): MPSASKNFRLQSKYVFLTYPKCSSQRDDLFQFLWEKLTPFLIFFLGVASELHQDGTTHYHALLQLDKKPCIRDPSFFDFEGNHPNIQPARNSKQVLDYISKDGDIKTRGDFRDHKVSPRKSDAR
# Experimental: as §1
# [5] = test system: T5, Rep nickase domain of faba bean necrotic yellows virus
# T5 sequence (protein, residues 1-98, tag omitted): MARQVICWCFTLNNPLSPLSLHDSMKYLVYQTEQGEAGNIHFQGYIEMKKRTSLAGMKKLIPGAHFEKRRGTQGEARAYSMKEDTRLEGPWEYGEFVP
# Experimental: as §1
# [6] = test system: T6, Rep nickase domain of maize striate mosaic virus
# T6 sequence (protein, residues 1-117, tag omitted): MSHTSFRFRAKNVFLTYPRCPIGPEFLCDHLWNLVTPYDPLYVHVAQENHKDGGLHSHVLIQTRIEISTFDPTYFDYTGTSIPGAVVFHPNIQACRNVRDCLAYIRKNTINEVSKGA
# Experimental: as §1
# [7] = test system: T7, Rep nickase domain of porcine circovirus 2
# T7 sequence (protein, residues 2-116, tag omitted): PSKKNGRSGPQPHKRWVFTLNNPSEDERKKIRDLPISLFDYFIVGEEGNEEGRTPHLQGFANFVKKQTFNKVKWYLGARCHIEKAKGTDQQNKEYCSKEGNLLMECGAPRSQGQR
# Experimental: as §1
# [8] = test system: T8, Rep nickase domain of tomato golden mosaic virus
# T8 sequence (protein, residues 1-124, tag omitted): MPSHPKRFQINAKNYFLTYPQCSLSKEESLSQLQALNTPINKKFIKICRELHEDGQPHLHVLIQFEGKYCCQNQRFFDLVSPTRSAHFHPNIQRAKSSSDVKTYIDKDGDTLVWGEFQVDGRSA
# Experimental: as §1
# [9] = test system: T9, Rep nickase domain of tomato yellow leaf curl virus
# T9 sequence (protein, residues 1-136, tag omitted): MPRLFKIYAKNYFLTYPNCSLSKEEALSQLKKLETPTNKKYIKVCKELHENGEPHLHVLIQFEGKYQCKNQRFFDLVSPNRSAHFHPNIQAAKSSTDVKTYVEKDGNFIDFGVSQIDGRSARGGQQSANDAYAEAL
# Experimental: as §1
# [10] = test system: T10, Rep nickase domain of wheat dwarf virus
# T10 sequence (protein, residues 1-137, tag omitted): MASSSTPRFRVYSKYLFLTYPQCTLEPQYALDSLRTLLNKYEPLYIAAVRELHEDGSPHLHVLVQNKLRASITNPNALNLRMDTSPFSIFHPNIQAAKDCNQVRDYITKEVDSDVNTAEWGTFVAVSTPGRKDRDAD
# Experimental: as §1
Sequence,uncleaved DNA left (log2) [1],uncleaved DNA left (log2) [2],uncleaved DNA left (log2) [3],uncleaved DNA left (log2) [4],uncleaved DNA left (log2) [5],uncleaved DNA left (log2) [6],uncleaved DNA left (log2) [7],uncleaved DNA left (log2) [8],uncleaved DNA left (log2) [9],uncleaved DNA left (log2) [10]
CGGTAGT,-1.05,-0.141,-0.113,-0.0746,-0.296,-0.142,-3.05,-0.109,-0.0531,-0.154
GTATAGT,-1.11,0.0646,0.156,0.36,0.0533,1.39,-0.921,0.0294,0.0677,0.0567
CTCCTCA,0.00507,0.065,-0.039,-0.856,0.0163,-0.456,-0.0764,-0.013,0.00885,0.033
ACTTTTG,0.0131,0.183,-0.669,-0.256,0.0808,-1.02,0.196,0.00857,0.091,0.0948
TATATCT,-0.869,-1.68,-1.29,-2.85,-0.015,-0.379,-2.22,-0.0989,0.239,-0.09
TTCTCGA,-0.00991,0.00408,0.0283,-0.35,0.0091,-0.655,0.0538,-0.0645,-0.0375,0.00514
GCTTCCC,-0.101,-0.0917,0.0649,0.286,-0.136,0.367,-1.36,-0.0601,-0.047,-0.0148
TGTGCAC,-0.0646,0.0664,0.178,0.621,-0.0669,0.766,0.037,0.104,0.0443,0.0769
AAAGGCT,0.153,0.248,0.207,1.09,0.0676,1.36,0.201,0.168,-0.0354,0.0462
CCTGTCA,-0.00776,-0.0781,0.0517,-0.707,0.0301,-0.34,0.0167,0.0901,0.105,0.0387
GAGCAGA,0.021,0.099,0.267,0.776,0.00499,0.763,-0.0456,0.017,-0.0629,0.0313
ATGCGAA,0.0228,-0.0185,-0.648,-0.513,-0.103,-1.06,-0.0324,-0.000983,-0.0546,-0.106
ATATCGT,-0.119,-0.0214,-0.552,-1.08,0.0496,-1.08,-0.202,-0.0218,-0.0193,-0.113
CTCGTGC,-0.17,-0.113,-0.614,-0.741,-0.0976,-1.1,0.058,-0.246,0.00667,-0.0468
ACAACTT,-0.00717,-0.131,-0.207,-2.56,0.0462,-0.598,-0.35,0.00978,-0.0931,-0.0539
GTCACCG,0.0657,0.125,0.194,0.428,-0.0561,0.673,0.128,0.188,0.0448,0.138
AACGCAA,0.0759,-0.0615,-0.174,-0.472,0.00633,-0.407,0.0465,-0.0161,-0.11,-0.069
ACACAAT,0.0475,0.0725,-0.245,-1.37,0.155,-0.801,0.0269,0.081,-0.0598,-0.00404
CAGGGTT,0.198,0.114,0.301,1.08,0.176,1.66,-0.446,0.232,0.00936,0.0507
AGAGTTT,0.104,0.00315,0.196,-1.2,0.0823,0.432,-0.32,0.0934,0.125,0.0167

Sequence,uncleaved DNA left (log2) [1],uncleaved DNA left (log2) [2],uncleaved DNA left (log2) [3],uncleaved DNA left (log2) [4],uncleaved DNA left (log2) [5],uncleaved DNA left (log2) [6],uncleaved DNA left (log2) [7],uncleaved DNA left (log2) [8],uncleaved DNA left (log2) [9],uncleaved DNA left (log2) [10]
AAAGGAG,0.117,-0.00706,0.0955,1.51,0.0566,1.08,0.177,0.053,-0.0977,0.0795
TCTAGTC,0.161,-0.0852,0.101,-0.158,-0.0314,-0.681,0.0239,-0.0149,-0.043,0.00601
ATAACAA,0.0102,0.0757,-0.515,-1.1,-0.0468,-0.627,0.0378,0.0348,-0.0218,0.0804
AGATCGT,-0.0379,0.02,-0.0628,-0.356,0.0327,-0.81,-0.262,-0.099,-0.142,-0.065
AGCCTTG,-0.218,-0.1,-0.121,0.118,-0.104,0.995,-0.0815,-0.133,-0.0565,-0.122
CCTTTAA,0.014,-0.0199,-0.236,-0.723,-0.0832,-0.755,-0.0601,0.0456,-0.0349,-0.012
ATTGGTC,0.0637,-0.223,-0.145,-0.165,-0.04,-0.611,-0.0731,-0.13,-0.0328,-0.123
TAGGGGT,0.0329,-0.0561,0.222,1.19,0.0193,1.74,0.0299,0.0904,-0.00426,0.133
ATTACAT,-0.11,0.102,0.29,-1.04,0.059,0.146,-2.01,-0.0397,0.129,0.159
ACATAGA,0.043,-0.0343,-0.395,-0.337,0.0473,-1.17,0.0202,0.0696,0.00942,-0.0612
GGATGCT,-0.364,0.105,0.313,0.478,0.106,0.408,-1.27,0.0705,0.183,0.157
AGTTCAA,0.0318,0.192,0.206,0.324,-0.000157,-0.159,-0.415,0.0155,0.0847,0.179
TACAACG,-0.0754,-0.132,-1.05,-1.13,-0.00912,-1.42,0.0565,-0.138,-0.237,-0.185
GCACTTC,-0.124,0.054,0.0494,0.158,-0.103,-0.275,-0.0583,-0.151,-0.0545,-0.0268
TGCCGCC,-0.00438,-0.0655,0.00667,-0.238,-0.131,-0.456,-0.048,-0.109,-0.0536,0.0555
CACATGA,0.112,0.108,-0.266,-0.568,0.075,-1.03,0.183,0.0848,0.0453,0.00943
GCGGTCC,-0.0904,-0.102,0.355,0.833,-0.133,1.27,-0.111,-0.0368,-0.00109,-0.0161
TGTGGTC,-0.106,-0.127,0.222,0.619,-0.0309,0.924,-0.0295,-0.125,-0.0267,-0.0366
TTGCGAT,-0.0164,-0.0837,-0.686,-0.0436,0.00339,-0.819,0.098,-0.0487,0.0145,-0.185
ATAAATC,0.137,0.167,0.177,-0.156,0.217,-0.67,0.153,0.14,0.139,0.104

Sequence,uncleaved DNA left (log2) [1],uncleaved DNA left (log2) [2],uncleaved DNA left (log2) [3],uncleaved DNA left (log2) [4],uncleaved DNA left (log2) [5],uncleaved DNA left (log2) [6],uncleaved DNA left (log2) [7],uncleaved DNA left (log2) [8],uncleaved DNA left (log2) [9],uncleaved DNA left (log2) [10]
TCCTTAG,0.111,-0.023,-0.638,-0.782,0.207,-1.2,0.104,-0.0288,0.111,0.00203
CTGTTGA,0.0422,0.0135,-0.308,-0.369,0.073,-1.06,0.0358,-0.053,0.0314,-0.113
ACCATAT,0.14,-0.125,-0.409,-0.929,0.0801,-1.18,-0.0648,0.127,-0.109,-0.152
ATCTCAT,-0.064,-0.0519,-0.14,-0.479,-0.0363,-0.316,-0.731,-0.163,0.0533,0.0359
TTAGTGC,-0.049,-0.182,-0.48,-0.824,-0.0416,-1.15,0.00179,-0.114,-0.0836,-0.176
ATAGTAG,0.0635,0.00504,-0.617,-0.446,0.137,-0.963,0.165,0.0711,0.168,0.109
CATTCCT,-3.39,-3.23,-0.287,-2.96,-0.185,-0.749,-3.53,-0.127,-0.00964,-0.162
TTTCTGC,-0.0695,-0.0915,-0.527,-0.788,-0.0559,-1.2,-0.0218,-0.232,0.00895,-0.118
TTCCATT,0.055,-0.086,0.0368,-1.71,-0.0177,-0.498,-0.802,-0.195,0.0712,-0.0159
ACCGCCA,-0.0467,0.0804,-0.154,-0.897,0.063,-0.667,-0.0356,-0.016,-0.0378,0.104
TATGCGC,0.049,0.0451,-0.736,0.459,0.0439,-0.906,0.189,-0.0613,0.0823,-0.00471
TCTGATG,-0.0502,-0.021,-0.238,-0.147,0.0624,-0.798,0.0903,0.0555,0.0709,0.0092
GAGATAG,0.0643,0.0124,0.00507,0.644,0.0236,-0.367,0.0677,0.0247,0.0122,0.045
ACTGCTT,0.0779,-0.0828,-0.269,-0.845,0.0151,-0.363,-0.338,0.0933,-0.00944,-0.152
CTGTGCT,-0.761,-0.194,-0.572,-1.14,-0.0778,-1.1,-2.84,-0.0226,0.13,-0.113
GATTCGT,-0.763,-0.425,-0.156,-0.495,0.141,-0.703,-2.84,-0.0251,0.139,0.157
CATATTT,-0.462,-3.52,-0.557,-3.35,-0.0733,-0.9,-2.86,-0.121,-0.195,-0.194
TTAAGCT,0.0375,-0.115,-2.69,-3.04,-0.00443,-1.15,0.00129,-0.214,-0.0726,-0.402
